# In article PMC9911399, “Two distinct binding modes provide the RNA-binding protein RbFox with extraordinary sequence specificity”:
# Substitutions are numbered along the chain they refer to; changes in the protein carry UniProt numbers. The list shows a part of the results.
# B1: UAUCACU (DNA:RNA)
# RNA: GGGAGACCGGAAUUCAGAUUGUCCUAUCACUUUAAAUCCCGUCGUAGCCACCA
# DNA 1: CAATCTGAATTCCGGTCTCCC
# DNA 2: TGGTGGCTACGACGGGATT
# B2: GGGUUUA (DNA:RNA)
# RNA: GGGAGACCGGAAUUCAGAUUGUCCGGGUUUAUUAAAUCCCGUCGUAGCCACCA
# DNA 1: CAATCTGAATTCCGGTCTCCC
# DNA 2: TGGTGGCTACGACGGGATT
# B3: AGAUCCA (DNA:RNA)
# RNA: B2 RNA with G25A, G27A, U29C, U30C
# DNA 1: CAATCTGAATTCCGGTCTCCC
# DNA 2: TGGTGGCTACGACGGGATT
# B4: CGGCCGG (DNA:RNA)
# RNA: B2 RNA with G25C, U28C, U29C, U30G, A31G
# DNA 1: CAATCTGAATTCCGGTCTCCC
# DNA 2: TGGTGGCTACGACGGGATT
# B5: ACCCCCC (DNA:RNA)
# RNA: B1 RNA with U25A, A26C, U27C, A29C, U31C
# DNA 1: CAATCTGAATTCCGGTCTCCC
# DNA 2: TGGTGGCTACGACGGGATT
# B6: AACAUCG (DNA:RNA)
# RNA: B1 RNA with U25A, U27C, C28A, A29U, U31G
# DNA 1: CAATCTGAATTCCGGTCTCCC
# DNA 2: TGGTGGCTACGACGGGATT
# B7: CGCGUGU (DNA:RNA)
# RNA: B2 RNA with G25C, G27C, U28G, U30G, A31U
# DNA 1: CAATCTGAATTCCGGTCTCCC
# DNA 2: TGGTGGCTACGACGGGATT
# B8: CAGGCCU (DNA:RNA)
# RNA: B1 RNA with U25C, U27G, C28G, A29C
# DNA 1: CAATCTGAATTCCGGTCTCCC
# DNA 2: TGGTGGCTACGACGGGATT
# B9: UUGUAUA (DNA:RNA)
# RNA: B2 RNA with G25U, G26U, U29A
# DNA 1: CAATCTGAATTCCGGTCTCCC
# DNA 2: TGGTGGCTACGACGGGATT
# B10: CCUUGAA (DNA:RNA)
# RNA: B2 RNA with G25C, G26C, G27U, U29G, U30A
# DNA 1: CAATCTGAATTCCGGTCTCCC
# DNA 2: TGGTGGCTACGACGGGATT
# B11: UUCUAUU (DNA:RNA)
# RNA: B1 RNA with A26U, U27C, C28U, C30U
# DNA 1: CAATCTGAATTCCGGTCTCCC
# DNA 2: TGGTGGCTACGACGGGATT
# B12: GUGGCUU (DNA:RNA)
# RNA: B2 RNA with G26U, U28G, U29C, A31U
# DNA 1: CAATCTGAATTCCGGTCTCCC
# DNA 2: TGGTGGCTACGACGGGATT
# B13: AUACAUA (DNA:RNA)
# RNA: B2 RNA with G25A, G26U, G27A, U28C, U29A
# DNA 1: CAATCTGAATTCCGGTCTCCC
# DNA 2: TGGTGGCTACGACGGGATT
# B14: GUUAAAA (DNA:RNA)
# RNA: B2 RNA with G26U, G27U, U28A, U29A, U30A
# DNA 1: CAATCTGAATTCCGGTCTCCC
# DNA 2: TGGTGGCTACGACGGGATT
# B15: UUGGAGA (DNA:RNA)
# RNA: B2 RNA with G25U, G26U, U28G, U29A, U30G
# DNA 1: CAATCTGAATTCCGGTCTCCC
# DNA 2: TGGTGGCTACGACGGGATT
# B16: CUGGCAC (DNA:RNA)
# RNA: B2 RNA with G25C, G26U, U28G, U29C, U30A, A31C
# DNA 1: CAATCTGAATTCCGGTCTCCC
# DNA 2: TGGTGGCTACGACGGGATT
# B17: ACCGCCG (DNA:RNA)
# RNA: B1 RNA with U25A, A26C, U27C, C28G, A29C, U31G
# DNA 1: CAATCTGAATTCCGGTCTCCC
# DNA 2: TGGTGGCTACGACGGGATT
# B18: ACGAAAG (DNA:RNA)
# RNA: B2 RNA with G25A, G26C, U28A, U29A, U30A, A31G
# DNA 1: CAATCTGAATTCCGGTCTCCC
# DNA 2: TGGTGGCTACGACGGGATT
# B19: GGAGAGA (DNA:RNA)
# RNA: B2 RNA with G27A, U28G, U29A, U30G
# DNA 1: CAATCTGAATTCCGGTCTCCC
# DNA 2: TGGTGGCTACGACGGGATT
# B20: CGAAGUG (DNA:RNA)
# RNA: B2 RNA with G25C, G27A, U28A, U29G, A31G
# DNA 1: CAATCTGAATTCCGGTCTCCC
# DNA 2: TGGTGGCTACGACGGGATT
# B21: GCGACGG (DNA:RNA)
# RNA: B2 RNA with G26C, U28A, U29C, U30G, A31G
# DNA 1: CAATCTGAATTCCGGTCTCCC
# DNA 2: TGGTGGCTACGACGGGATT
# B22: CGGGAGG (DNA:RNA)
# RNA: B2 RNA with G25C, U28G, U29A, U30G, A31G
# DNA 1: CAATCTGAATTCCGGTCTCCC
# DNA 2: TGGTGGCTACGACGGGATT
# B23: AUAAUCA (DNA:RNA)
# RNA: B2 RNA with G25A, G26U, G27A, U28A, U30C
# DNA 1: CAATCTGAATTCCGGTCTCCC
# DNA 2: TGGTGGCTACGACGGGATT
# B24: GUUCCUG (DNA:RNA)
# RNA: B2 RNA with G26U, G27U, U28C, U29C, A31G
# DNA 1: CAATCTGAATTCCGGTCTCCC
# DNA 2: TGGTGGCTACGACGGGATT
# B25: ACACAAC (DNA:RNA)
# RNA: B1 RNA with U25A, A26C, U27A, C30A, U31C
# DNA 1: CAATCTGAATTCCGGTCTCCC
# DNA 2: TGGTGGCTACGACGGGATT
# B26: UUGGCAA (DNA:RNA)
# RNA: B2 RNA with G25U, G26U, U28G, U29C, U30A
# DNA 1: CAATCTGAATTCCGGTCTCCC
# DNA 2: TGGTGGCTACGACGGGATT
# B27: AAAUUAU (DNA:RNA)
# RNA: B2 RNA with G25A, G26A, G27A, U30A, A31U
# DNA 1: CAATCTGAATTCCGGTCTCCC
# DNA 2: TGGTGGCTACGACGGGATT
# B28: CUUUACC (DNA:RNA)
# RNA: B1 RNA with U25C, A26U, C28U, U31C
# DNA 1: CAATCTGAATTCCGGTCTCCC
# DNA 2: TGGTGGCTACGACGGGATT
# B29: UACUUUA (DNA:RNA)
# RNA: B2 RNA with G25U, G26A, G27C
# DNA 1: CAATCTGAATTCCGGTCTCCC
# DNA 2: TGGTGGCTACGACGGGATT
# B30: CCUUUCU (DNA:RNA)
# RNA: B1 RNA with U25C, A26C, C28U, A29U
# DNA 1: CAATCTGAATTCCGGTCTCCC
# DNA 2: TGGTGGCTACGACGGGATT
# B31: AGCGAGA (DNA:RNA)
# RNA: B2 RNA with G25A, G27C, U28G, U29A, U30G
# DNA 1: CAATCTGAATTCCGGTCTCCC
# DNA 2: TGGTGGCTACGACGGGATT
# Molecular target: T1, RBFOX1 RRM (Homo sapiens, UniProt Q9NWB1 109-208)
# T1 sequence: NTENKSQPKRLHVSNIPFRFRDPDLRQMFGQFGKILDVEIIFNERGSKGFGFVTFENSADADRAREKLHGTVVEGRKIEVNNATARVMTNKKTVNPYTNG
# Assay: EMSA; HiTS-Eq, 1 nM pool, 10 min; buffer printed only for the single-RNA assays: 10 mM Tris pH 7.5, 150 mM NaCl, 3.4 mM EDTA, 0.001% NP-40, 30 C
# Conditions: tags: His6 N-terminal (pET28a); label: 5' 32P
# Procedure, shortened: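 Purified RbFox RRM (wild type or mutant) was equilibrated for 10 min in 50 µL with 1 nM of a 5′-radiolabelled pool of RNA with 7 randomized nucleotides, its flanks annealed to DNA oligonucleotides, across increasing protein concentrations. Free RNA was separated by 8% native PAGE, excised, reverse-transcribed, PCR-barcoded and sequenced on an Illumina HiSeq 2500. Relative association constants came from read-count changes of each variant against the control reaction, normalised to the cognate motif.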
row,Binder,binding signal
1,B1,0.00813 KA relative to UGCAUGU
2,B2,0.0165 KA relative to UGCAUGU
3,B3,0.00246 KA relative to UGCAUGU
4,B4,0.0119 KA relative to UGCAUGU
5,B5,0.00425 KA relative to UGCAUGU
6,B6,0.00596 KA relative to UGCAUGU
7,B7,0.0198 KA relative to UGCAUGU
8,B8,0.013 KA relative to UGCAUGU
9,B9,0.0063 KA relative to UGCAUGU
10,B10,0.0087 KA relative to UGCAUGU
11,B11,0.00688 KA relative to UGCAUGU
12,B12,0.0272 KA relative to UGCAUGU
13,B13,0.000884 KA relative to UGCAUGU
14,B14,0.00575 KA relative to UGCAUGU
15,B15,0.00954 KA relative to UGCAUGU
16,B16,0.0183 KA relative to UGCAUGU

row,Binder,binding signal
1,B17,0.00411 KA relative to UGCAUGU
2,B18,0.00611 KA relative to UGCAUGU
3,B19,0.0135 KA relative to UGCAUGU
4,B20,0.0164 KA relative to UGCAUGU
5,B21,0.0219 KA relative to UGCAUGU
6,B22,0.0133 KA relative to UGCAUGU
7,B23,0.00259 KA relative to UGCAUGU
8,B24,0.0175 KA relative to UGCAUGU
9,B25,0.00126 KA relative to UGCAUGU
10,B26,0.0145 KA relative to UGCAUGU
11,B27,0.00144 KA relative to UGCAUGU
12,B28,0.00108 KA relative to UGCAUGU
13,B29,0.00341 KA relative to UGCAUGU
14,B30,0.00554 KA relative to UGCAUGU
15,B31,0.0112 KA relative to UGCAUGU
